The full ranking holds about 33,000 sequences; the median of “E-score (-0.5 to 0.5)” is about -0.054, and the highest 2% start at about 0.35. This is one part of the list.

The target of this experiment is T1, Stb5 (UniProt P38699).
T1 sequence: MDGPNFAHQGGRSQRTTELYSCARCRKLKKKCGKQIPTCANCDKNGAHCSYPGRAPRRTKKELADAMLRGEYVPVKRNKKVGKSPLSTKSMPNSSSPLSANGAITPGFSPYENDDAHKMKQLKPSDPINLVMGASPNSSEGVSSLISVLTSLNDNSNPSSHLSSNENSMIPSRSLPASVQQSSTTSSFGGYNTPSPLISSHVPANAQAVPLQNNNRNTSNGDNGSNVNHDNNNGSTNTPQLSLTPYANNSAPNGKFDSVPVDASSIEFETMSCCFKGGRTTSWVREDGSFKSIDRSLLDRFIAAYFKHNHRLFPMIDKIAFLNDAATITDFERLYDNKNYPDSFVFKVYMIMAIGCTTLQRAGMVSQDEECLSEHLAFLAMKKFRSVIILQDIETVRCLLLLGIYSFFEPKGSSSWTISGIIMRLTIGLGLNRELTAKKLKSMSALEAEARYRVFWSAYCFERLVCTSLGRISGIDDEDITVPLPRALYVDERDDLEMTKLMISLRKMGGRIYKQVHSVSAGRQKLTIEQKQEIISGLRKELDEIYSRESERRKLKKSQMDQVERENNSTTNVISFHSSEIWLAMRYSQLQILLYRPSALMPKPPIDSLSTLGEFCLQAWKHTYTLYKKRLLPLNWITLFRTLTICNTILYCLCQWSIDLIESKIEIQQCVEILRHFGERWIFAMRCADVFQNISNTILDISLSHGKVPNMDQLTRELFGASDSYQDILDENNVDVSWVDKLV
As to the kind of experiment: PBM E-score (8-mer binding enrichment) (E-score (-0.5 to 0.5)); higher = stronger / more preferred TF binding; most listed sequences are background and not binding sites. The conditions noted are these: protein concentration: 200 nM; construct: GST-full length. Here is the method:
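Universal 'all 10-mer' protein binding microarrays (Agilent AMADID 015681) probed with GST-tagged S. cerevisiae TFs (full-length or DBD) made by in vitro transcription/translation (PURExpress), about 100-200 nM. Bound TF was detected with fluorescent anti-GST. Each ungapped 8-mer (which stands for itself and its reverse complement) is scored by the PBM enrichment score (E-score), a modified Wilcoxon-Mann-Whitney statistic from -0.5 to +0.5, computed with the Universal PBM Analysis Suite. Scale: above 0.35 generally sequence-specific binding.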
As for GCGATTCA, the “PBM E-score” value worked out at 0.00506. In the case of CTCTCGAC it was -0.236; in that of CCTACCAG, -0.191; in that of GCATACTA, -0.068. In the case of CCTAGCTA it was -0.0995; in that of CCGGGTCA, 0.176; in that of CACATTTA, -0.221. The result for CAGAAAGA reads -0.147; that for TGAAATCA, -0.153; that for CCCATTCA, -0.175.

ACTTGAAA: the “PBM E-score” value is -0.0604.

As to ATACAACC, the “PBM E-score” value amounted to 0.207. In the case of ACCGATGA it was 0.264. Regarding CGTTTGGC, the “PBM E-score” value amounted to 0.0428. On to ATGGCCGC, for which the “PBM E-score” value came to 0.308. The result for AGGTTGTG reads -0.231; that for CACGTAGA, -0.271; that for CGACTAAC, 0.00814. On to GAACCCCA, for which the “PBM E-score” value is 0.0175. As to AAGAGGCT, the “PBM E-score” value was -0.157.

For ACATCTTC, the “PBM E-score” value is 0.09. In the case of GGTCGGCA it was 0.375.

For GATCGCGC, the “PBM E-score” value came to 0.119. The result for TCCCTAGA reads -0.0216; that for CAACCTGA, -0.324. The result for CGTTCATA reads -0.00798; that for CACGATAA, 0.1; that for CATGCCGC, 0.312.

Regarding ACCGTTAA, the “PBM E-score” value was determined as 0.29. In the case of GAGTTTGA it was -0.0751. In the case of ACCTGGCC, the “PBM E-score” value was -0.266. In the case of CATATACG it was 0.0803; in that of ACGGAAAC, 0.0965. On to AACAAGGA, for which the “PBM E-score” value was -0.14. On to CCTGGGCG, for which the “PBM E-score” value came out at 0.00069. In the case of GGAGCTCC it was 0.234. Turning to ATTTATCG, the “PBM E-score” value worked out at 0.00233. In the case of CGAGTGCC it was -0.0896; in that of AACTGCGC, 0.211. The result for AGGGGAAA reads -0.267. The result for AATTGGCG reads 0.063. For the sequence CCGTGACG, the “PBM E-score” value was determined as 0.19. The result for AAGATTTG reads -0.112; that for CAACGTCC, 0.125.

On to GATGATGA, for which the “PBM E-score” value was -0.091. In the case of GTAGCCAC it was -0.184; in that of ATTACTCC, 0.237; in that of AAGATTGT, 0.0159. In the case of GAGTAGGA it was -0.145. As to AAGATATC, the “PBM E-score” value was -0.0867.

In the case of CAACTAGA, the “PBM E-score” value was 0.0187. In the case of CTATTTGC it was -0.0716; in that of CCTCGTTA, -0.341.

Consider AAATTACA, for which the “PBM E-score” value is 0.0977. In the case of CGCACTTC it was 0.0228; in that of CTTATATA, 0.0596. The result for GCGGCTTA reads 0.165; that for GTCAAATA, -0.0305.

On to GCGTACAA, for which the “PBM E-score” value was -0.226.

For CACGGCTC, the “PBM E-score” value came to 0.0891. With ACTATGCG, the “PBM E-score” value was found to be 0.00945. On to CTCGCATC, for which the “PBM E-score” value was -0.124. The result for AATGGTCT reads -0.118; that for ATGACCTC, -0.132; that for AGCATGAA, -0.195.

On to GGGCAAGA, for which the “PBM E-score” value stood at 0.0117. In the case of ACTCAGCG, the “PBM E-score” value is -0.056. In the case of GATTAGAA, the “PBM E-score” value is -0.0718. The result for CTTCAGAC reads -0.125. In the case of CTATGTTA it was 0.122.

As to CATGTACA, the “PBM E-score” value was -0.155.

For CCGTTTAC, the “PBM E-score” value was 0.082. Take AAGTGTGC: the “PBM E-score” value was -0.259. On to CACTACCA, for which the “PBM E-score” value was -0.00408.

In the case of GCTGTTAC, the “PBM E-score” value turned out to be 0.183. For AACCAACT, the “PBM E-score” value is -0.218.

For the sequence GTAGAGAC, the “PBM E-score” value is -0.229. In the case of ATTTGGTC it was -0.0368. As to ACATAACC, the “PBM E-score” value is 0.116. In the case of ACGCATCC it was -0.104; in that of CAGCGTGG, -0.165; in that of CCTTTTGA, -0.106.

For GCCGAGAA, the “PBM E-score” value amounted to 0.117. In the case of AGTTTCTA it was 0.033; in that of CTTTCAGC, 0.119. The result for CGGCTATA reads 0.367. The result for AACCCCTT reads 0.0178; that for TCGATTAA, -0.242; that for AGTGCGCC, 0.028. On to CAAGCACC, for which the “PBM E-score” value is 0.0493.

For GACTCGAC, the “PBM E-score” value is -0.203. The result for CTTACCTA reads -0.28; that for CTCCAAAA, -0.1; that for GCCTGGTA, -0.0959. As for ACCACACG, the “PBM E-score” value was -0.18. In the case of CATGGAGG it was -0.242. As for CTAGCGCC, the “PBM E-score” value was 0.172. In the case of GGTCTAAC it was 0.0664; in that of CCGAGTCG, 0.168. In the case of TAACGGCA, the “PBM E-score” value was determined as 0.22.

Turning to AACCTGCG, the “PBM E-score” value was found to be 0.05.

With ACACTCAC, the “PBM E-score” value is -0.0181. In the case of ACTCTTAA it was -0.0596; in that of ACTCATGC, -0.117; in that of CAGCCAAA, -0.131. As to CGCTTTCC, the “PBM E-score” value was 0.0771. The result for AAGTGGTG reads -0.099; that for CCGTAAGC, 0.139; that for ACAAATCC, 0.0856. GGGTCATA: the “PBM E-score” value was -0.00196.

(Values after the supplement of paper PMC3334620.)
